# In PubChem BioAssay AID488969 (Vanderbilt High Throughput Screening Facility, 2010):
# Over roughly 110,000 compounds, “z-score” has its median near -0.1; the highest 2% begin near 2. This is one part of the list.
# Target: Metabotropic glutamate receptor 8 (Rattus norvegicus) (UniProt P70579)
# Assay: mGluR8 Gi/Go-coupled signaling modulation – cell-based, rat, thallium flux, HTS, primary screen (AID 488969)
# Settings: HEK293 rat mGluR8, GIRK (G protein-gated inwardly rectifying potassium channel) thallium flux, FluoZin2; at 10 µM; stronger effect = higher value; submaximal glutamate (EC20) added with thallium
# Sequence of UniProt P70579 (P70579 whole entry, looked up): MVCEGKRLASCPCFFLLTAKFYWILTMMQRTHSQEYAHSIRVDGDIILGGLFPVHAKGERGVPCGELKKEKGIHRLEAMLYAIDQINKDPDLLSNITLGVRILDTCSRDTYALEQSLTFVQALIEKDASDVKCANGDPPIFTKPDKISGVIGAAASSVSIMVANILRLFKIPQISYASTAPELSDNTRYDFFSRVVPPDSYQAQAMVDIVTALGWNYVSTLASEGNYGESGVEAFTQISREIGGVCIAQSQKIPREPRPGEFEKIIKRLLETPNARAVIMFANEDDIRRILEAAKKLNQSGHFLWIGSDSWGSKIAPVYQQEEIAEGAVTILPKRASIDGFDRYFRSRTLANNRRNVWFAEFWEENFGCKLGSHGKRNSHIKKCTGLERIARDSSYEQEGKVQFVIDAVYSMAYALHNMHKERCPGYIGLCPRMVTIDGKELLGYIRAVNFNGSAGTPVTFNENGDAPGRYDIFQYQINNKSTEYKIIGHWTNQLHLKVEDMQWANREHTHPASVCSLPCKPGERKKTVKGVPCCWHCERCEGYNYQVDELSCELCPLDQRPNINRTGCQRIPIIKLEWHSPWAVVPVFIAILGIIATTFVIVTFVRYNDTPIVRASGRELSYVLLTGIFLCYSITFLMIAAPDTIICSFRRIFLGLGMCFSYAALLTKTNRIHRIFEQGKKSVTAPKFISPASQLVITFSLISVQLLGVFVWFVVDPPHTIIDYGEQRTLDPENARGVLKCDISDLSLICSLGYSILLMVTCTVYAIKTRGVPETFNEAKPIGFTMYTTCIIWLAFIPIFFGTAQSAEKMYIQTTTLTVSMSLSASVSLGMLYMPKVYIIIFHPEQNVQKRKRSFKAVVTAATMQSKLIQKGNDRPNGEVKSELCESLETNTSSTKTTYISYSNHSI
row,Structure (SMILES),z-score
1,O=C(CN1CCCCC1)Nc1nnc(-c2ccccc2)s1,-0.249
2,CCN(CC)C(=O)c1sc(NC(=O)c2ccco2)c(C#N)c1C,-0.102
3,Cc1ccc(C(=O)CC2(O)C(=O)N(C)c3ccc(Br)cc32)c(C)c1 (centres undefined),0.0794
4,CCOC(=O)N1CCN(C(=O)c2cn(C)c(=O)c3c2c2ccccc2n3C)CC1,-0.908
5,COC(=O)/C(N=Nc1cccc(C(F)(F)F)c1)=C(\C)O,-0.101
6,CC(=O)C1C(c2ccc3ncccc3c2)NC(=O)NC1(O)C(F)(F)F (centres undefined),0.355
7,C=CCn1c(=O)c(C(=O)NCCN(CC)CC)c(O)c2ccccc21,-0.224
8,O=c1c2[nH]c3cccc(Cl)c3c2ncn1CCN1CCCCC1,-0.00909
9,CC(C)(C)NCCOc1ccc(Br)cc1,-0.0295
10,CC1CCCN(CCCOc2ccc([N+](=O)[O-])cc2)C1 (centres undefined),0.0526
11,Cc1cc(OCCCCNC(C)C)cc(C(C)C)c1,0.32
12,Cc1c(C(=O)Nc2ccc(F)cc2)c2ccccn2c1CCc1ccncc1,-0.369
13,C/C(=N\NC(=O)Cc1c(C)[nH][nH]c1=O)c1ccc2ccccc2c1,-0.0708
14,COc1ccccc1S(=O)(=O)Cc1ccc(C(=O)NCCN(C)C)o1,0.66
15,COC(=O)C1(C)NC(c2ccc(O)cc2)C2C(=O)N(c3ccc4c(c3)OCCO4)C(=O)C21 (centres undefined),-0.191
16,Cc1nn(Cc2cccc(C(=O)Nc3ccn(Cc4ccccc4F)n3)c2)c(C)c1[N+](=O)[O-],-0.0852
17,C/C(CC(=O)Nc1ccccn1)=N\NC(=O)C(=O)Nc1ccccc1C,0.805
18,CC1CCN(CC(=O)c2c[nH]c3ccccc23)CC1,-0.0411
19,COc1ccc(-c2cc(C(=O)Nc3ccc(Cl)cc3Cl)c3ccccc3n2)cc1OC,-0.487
20,COc1ccc(N=C2SC(CC(=O)Nc3ccccc3)C(=O)N2Cc2ccco2)cc1 (centres undefined),-0.00683
21,O=c1sc(/C=N/Nc2ccccc2)c(Cl)n1Cc1ccccc1,-0.641
22,NC(=O)CNC1CC(=O)N(CCc2ccccc2)C1=O (centres undefined),-0.236

row,Structure (SMILES),z-score
1,CCOc1ccc(C(C(=O)NC2CCCC2)N(Cc2ccccc2)C(=O)c2nsc(Cl)c2Cl)cc1 (centres undefined),-0.145
2,CN(C)CCCN1C(=O)C(=O)/C(=C(/O)c2ccc3c(c2)OCO3)C1c1ccccn1 (centres undefined),0.413
3,CC1=C(C(=O)OCC(C)C)C(c2cccs2)NC(=S)N1 (centres undefined),-0.0977
4,CCOc1ccc(C2C(C(=O)c3ccco3)=C(O)C(=O)N2Cc2cccnc2)cc1 (centres undefined),-0.347
5,O=c1c2ccccc2nnn1CSc1nc2cc(Cl)ccc2c(=O)n1Cc1ccco1,0.441
6,Cc1ccc(S(=O)(=O)NC(=O)c2cccn2C)cc1,0.161
7,CC(C)C(NC(=S)NCc1ccccc1)C(=O)O (centres undefined),0.259
8,CCOC(=O)C1=C(C)N=c2s/c(=C\c3ccc(OC(C)=O)c(OCC)c3)c(=O)n2C1/C=C/c1ccccc1 (centres undefined),-0.293
9,CCOC(=O)C1C(c2cc(OC)c(O)c(OC)c2)NC(=S)NC1(O)C(F)(F)F (centres undefined),0.174
10,Cc1ccc(SCC(=O)Nc2cccc(C(=O)NC(C)(C)C)c2)cc1,-0.323
11,Cc1cc(S(=O)(=O)Nc2cccnc2)c(C)s1,-0.886
12,CCOc1ccc(C(Nc2ccc(C)cc2)P2(=O)OCCCO2)cc1 (centres undefined),-0.0948
13,Cc1ccc(OCc2nnc(SCC(=O)c3ccccc3)n2-c2ccccc2)cc1,-0.337
14,COc1ccc(CCNC(=O)CSc2nnc(Cn3c(=O)sc4ccccc43)n2C)cc1OC,-0.436
15,O=C(O)CCCCCNS(=O)(=O)c1cccc2nsnc12,-0.331
16,COc1cc2c(cc1OC)CN(Cc1cc(=O)oc3cc(C)c(Cl)cc13)CC2,-0.123
17,Cc1ccc(S(=O)(=O)NNC(=S)Nc2ccccc2)cc1,-0.201
18,COc1ccccc1C(=O)Nc1nc(-c2ccc(S(=O)(=O)N3CCOCC3)cc2)cs1,-0.185
19,Clc1ccccc1Cn1nnc2c(N3CCCC3)ncnc21,-0.729
20,Cn1nnnc1SCc1ccc(C(=O)Nc2nccs2)cc1,0.138
21,Cc1cc(C)nc(/N=C2\NC(=O)CC(C(=O)O)N2CCc2c[nH]c3ccccc23)n1 (centres undefined),0.285
22,COc1nc(-c2ccccc2)cc(-c2ccccc2)n1,2.45

row,Structure (SMILES),z-score
1,COC(=O)Cc1c(O)ccn(Cc2ccccc2OC)c1=O,-0.109
2,CCN(CC)CCCN1C(=O)C(=O)/C(=C(/O)c2cnn(-c3ccccc3)c2C)C1c1ccncc1 (centres undefined),-0.137
3,Cn1cc(CNC(=O)c2sc3cccc(Cl)c3c2Cl)cn1,-0.31
4,COC(=O)/C(=C\c1c[nH]c2ccccc12)NC(C)=O,0.206
5,CCOC(=O)C(C)n1cnc2c1c(=O)[nH]c(=O)n2C (centres undefined),-0.374
6,O=C(N/N=C/C=C/c1ccccc1)c1cccc(Br)c1,0.831
7,Cc1cc(NS(=O)(=O)c2ccc(NC(=O)CCCC(=O)O)cc2)nc(C)n1,0.622
8,CC1CC(=O)N(c2ccc(NCc3ccccc3Cl)c([N+](=O)[O-])c2)C1=O (centres undefined),-0.202
9,CCCC(=O)Nc1ccc(Nc2ccccc2)cc1,0.0261
10,O=C1CN(C(=O)CN2CCCC2)C(c2ccccc2)c2cc(Br)ccc2N1 (centres undefined),0.587
11,CN1C(=O)C(O)(c2sc(N)nc2-c2ccccc2)c2ccccc21 (centres undefined),-0.46
12,Cc1ccc(C)c(SCC(=O)NCc2ccco2)c1,-0.0688
13,CCCOc1cccc(NC(=O)c2cc(C)oc2C)c1,0.00457
14,CCc1nc2sc(C)c(C)c2c(=O)n1CCO,-0.208
15,C=CCCC(=O)Nc1nc(C)c(-c2csc(Nc3cccc(OC)c3)n2)s1,-0.207
16,O=C(c1ccco1)[C@@H]1[C@@H]2C(=O)N(c3ccc(F)cc3)C(=O)[C@@H]2[C@H]2C=Cc3ccccc3N21,0.171
17,CNC(=O)C1CCC(=O)N1Cc1ccc(C)cc1 (centres undefined),-0.465
18,CC(C)N(N=Nc1ccc([N+](=O)[O-])cc1)C(C)C,-0.283
19,CCc1ccc2[nH]c(=O)c(CN(CCCN3CCOCC3)C(=O)Nc3ccc(Cl)cc3)cc2c1,0.12
20,CCOC(=O)N1CCN(CC(O)COC(CC)c2ccccc2)CC1 (centres undefined),0.371
21,Cc1csc(SCC(=O)N2CCN(S(=O)(=O)c3ccc(Cl)cc3)CC2)n1,0.756
22,O=C(NC(Cc1ccccc1)c1nc2ccccc2[nH]1)c1ccc(Cl)c([N+](=O)[O-])c1 (centres undefined),-0.0614

row,Structure (SMILES),z-score
1,C[C@]1(C(=O)O)Cc2oncc2C[C@@H]1C(=O)O,0.0908
2,Cc1nnc(-c2cccc(Br)c2)c2cn(-c3ccccc3)nc12,-0.29
3,O=C(NCc1ccco1)C1CCCN(S(=O)(=O)c2ccccc2)C1 (centres undefined),-0.248
4,Cc1ccc(S(=O)(=O)N(CC(=O)Nc2cccc([N+](=O)[O-])c2)Cc2ccc(Cl)cc2)cc1,0.191
5,CCOC(=O)C1C(=O)OC2(CCOC(C)(C)C2)C1C(=O)OCC (centres undefined),-0.323
6,Cc1cccc(N(Cc2nnc3n2CCCCC3)C(=O)Nc2ccccc2)c1,-0.175
7,COc1cccc(NC(=O)CSc2nc3ccccc3c(=O)n2CCCC(=O)N2CCCC2)c1,-0.913
8,Cn1c(=O)[nH]c(=O)c2c1nc(Br)n2CCC(=O)c1ccccc1,1.07
9,CCc1c(C)n([O-])c2c([n+]1=O)CCC2,0.305
10,COc1cc(NS(=O)(=O)c2ccc(N/C=C\C(=O)c3ccc(C)cc3)cc2)nc(OC)n1,-0.0212
11,COc1ccc(-n2c(SCc3ccc([N+](=O)[O-])cc3)nnc2-c2ccccc2)cc1,-0.277
12,CC(=O)Nc1ccc(C(=O)CSc2nc3ccccc3n2CC(=O)N2CCCC2)cc1,0.664
13,COC(=O)c1c(NC(=O)c2ccnn2C)sc(C)c1C,0.471
14,CN(CC(=O)NC1CCCCC1)S(=O)(=O)c1ccc(Cl)cc1,-0.182
15,CCOc1cc(NC(=S)NCCCOC)c(OCC)cc1NC(=O)c1ccco1,-0.189
16,O=c1c2ccccc2nc2ccc(NCc3ccco3)nn12,-0.209
17,Cn1c(-c2ccc(CN3CCCCC3)o2)nc2ccccc21,-0.0532
18,CNc1ccc(Br)cc(C(=O)/C=C/c2ccc3c(c2)OCO3)c1=O,0.111
19,CCOc1ccc(C2CC(=O)NC3=C2C(=O)CCC3)cc1Cl (centres undefined),0.397
20,Cc1c(C(=O)NCc2ccc3c(c2)OCO3)oc2ccc(Br)cc12,-0.297
21,COc1cc(/C=C(\C#N)C(=O)N2CCOCC2)cc(Br)c1O,-0.0917
22,c1ccc(-c2nc(N3CCCCC3)nc3ccccc23)cc1,0.166

row,Structure (SMILES),z-score
1,c1ccc(CSc2nnc(-c3c[nH]c4ccccc34)o2)cc1,0.0482
2,COc1ccc(/C=C2\OC(=S)N(C)C2=O)cc1,-0.218
3,COc1cccc(CNCC(=O)N2C(C)CCCC2C)c1 (centres undefined),0.0289
4,Cc1ccc(N2CC(C(=O)Nc3ccc(N(C)C)cc3)CC2=O)cc1C (centres undefined),-0.467
5,COCc1nnc(NC(=O)c2ccc(Cl)cc2[N+](=O)[O-])s1,-0.144
6,N#Cc1c(-c2ccc(F)cc2)noc1N,-0.0626
7,Clc1ccc(-n2c(SC/C=C/c3ccccc3)nnc2-c2cccnc2)cc1,0.14
8,CCCCC(=O)Nc1ccc(C(=O)NNC(=O)CCc2ccccc2)cc1,-0.0764
9,CCN(CCCNC(=O)C1CCC(=O)N1C1CCCC1)c1cccc(C)c1 (centres undefined),0.183
10,Cc1cc(C)cc(OCC(=O)Nc2cccc(C(=O)O)c2)c1,-1.19
11,COc1cc(C2CC(=O)c3c([nH]c(C(=O)OCCOC(C)C)c3C)C2)cc(OC)c1OC (centres undefined),0.356
12,C/C(=N\NC(=O)COc1ccc(C(C)(C)C)cc1)c1cc2ccccc2o1,-0.0651
13,COc1ccc(C(C(=O)NC2CCCCC2)N(C(=O)CCl)c2cccc(Cl)c2)cc1 (centres undefined),-0.118
14,COc1ccc(CC(=O)Nc2ccc3c(c2)CCC3)cc1OC,-0.0198
15,CN(CC(=O)Nc1ccc(Cl)c(Cl)c1)C(=O)C12CC3CC(CC(C3)C1)C2,-0.069
16,COC(=O)c1ccc(OCCN2C3=NCCN3c3ccccc32)cc1,0.981
17,CCCCOC(=O)Nc1cc(C)c(Cl)cc1OC,-0.541
18,CC(C)NC(=O)/C(=C/c1ccco1)c1ccccc1,2.43
19,C=CCNC(=O)NC(=O)COC(=O)c1ccccc1Sc1ccc(C(F)(F)F)cc1[N+](=O)[O-],-0.423
20,Cc1ccccc1N(C(=O)Cc1cccs1)C(C(=O)NCC1CCCO1)c1cccnc1 (centres undefined),-0.494
21,CC(C)CCNC(=O)Cn1c(=O)oc2cc(S(=O)(=O)N3CCc4ccccc43)ccc21,-0.186
